The target of assay [1] is T1, 5T4-Fc (human, UniProt Q13641 32-355, limits assumed).
T1 sequence (looked up): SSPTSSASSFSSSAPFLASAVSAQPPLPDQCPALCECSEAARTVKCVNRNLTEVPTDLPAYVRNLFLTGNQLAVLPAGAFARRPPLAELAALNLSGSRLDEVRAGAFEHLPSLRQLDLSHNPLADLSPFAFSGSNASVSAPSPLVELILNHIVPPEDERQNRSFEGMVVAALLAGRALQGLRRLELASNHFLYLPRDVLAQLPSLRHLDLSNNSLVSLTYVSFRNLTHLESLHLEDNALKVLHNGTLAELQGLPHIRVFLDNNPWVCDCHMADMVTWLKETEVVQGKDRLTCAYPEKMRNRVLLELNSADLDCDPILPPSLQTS
Put plainly: cell-based or functional assay.

Assay [2] has as its target T1, 5T4-Fc. The experiment in a line: dual ELISA: coated 5T4-Fc, detection with CD137-bio. On the technique in general: In an ELISA, binding on a coated surface is turned into a signal by an enzyme label.
Assay [3] addresses T2, 5T4 (SPR antigen) (UniProt Q13641 32-355, limits assumed, biotinylated on the MASS-1 platform).
T2 construct: also called biotinylated 5T4
T2 sequence (looked up): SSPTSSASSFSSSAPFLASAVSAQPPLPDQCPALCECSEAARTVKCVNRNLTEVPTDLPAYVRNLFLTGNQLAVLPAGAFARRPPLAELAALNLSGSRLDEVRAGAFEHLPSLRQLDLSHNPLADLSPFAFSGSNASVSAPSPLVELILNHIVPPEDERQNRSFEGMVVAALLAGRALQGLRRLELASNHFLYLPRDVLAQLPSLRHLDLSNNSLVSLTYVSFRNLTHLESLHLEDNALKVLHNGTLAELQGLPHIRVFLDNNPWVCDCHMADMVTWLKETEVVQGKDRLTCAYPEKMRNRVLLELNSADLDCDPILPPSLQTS
Put plainly: SPR MASS-1, biotinylated antigen on streptavidin chip, bsAb injected (bivalent).

Assay [4] concerns the target biotinylated CD137 (UniProt Q07011 24-186, limits assumed, biotinylated). Described as above.
Assay [5] deals with T3, cynomolgus 5T4 on transfected CHO cells (Macaca mulatta (cynomolgus), UniProt F7CT46 35-420).
T3 construct: also called cyno5T4; cy5T4
T3 sequence: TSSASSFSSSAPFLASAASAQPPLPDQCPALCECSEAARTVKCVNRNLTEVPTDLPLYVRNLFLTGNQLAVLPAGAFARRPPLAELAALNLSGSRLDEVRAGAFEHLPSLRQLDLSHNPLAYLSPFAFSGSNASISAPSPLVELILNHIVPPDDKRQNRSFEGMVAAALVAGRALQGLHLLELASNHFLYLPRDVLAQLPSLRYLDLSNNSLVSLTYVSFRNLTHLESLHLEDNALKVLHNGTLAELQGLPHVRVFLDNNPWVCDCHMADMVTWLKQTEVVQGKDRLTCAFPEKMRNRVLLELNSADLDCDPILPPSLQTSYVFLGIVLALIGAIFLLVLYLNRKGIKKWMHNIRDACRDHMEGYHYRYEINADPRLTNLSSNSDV
Put plainly: flow cytometry on CHO-K cells transfected with cynomolgus 5T4, anti-IgG(Fc)-PE, MFI.

The target in assay [6] is T1, 5T4-Fc. Put plainly: dual ELISA: plate coated with 5T4-Fc, bsAb titrated, detection with CD137-bio + streptavidin-HRP, RLU; signal needs both arms.
The target of assay [7] is T2, 5T4 (SPR antigen). Put plainly: SPR MASS-1, scFv part of the bsAb against parental mAb.
Assay [8] has as its target T4, recombinant human CD137-Fc (R&D #838-4B) (human, UniProt Q07011 24-186).
T4 construct: bought; also called CD137 (R&D #838-4B); not shown: Fc part, bought reagent, not described
The experiment in a line: BLI Octet, bsAb on anti-Fab-CH1 tips, CD137-Fc as analyte. A general note: In BLI a coated tip is dipped into the sample, and binding shifts an interference pattern.

For assay [9], the target named is T5, cynomolgus CD137 on transfected CHO cells (cynomolgus; human).
T5 construct: extracellular domain;domain: transmembrane and intracellular part; also called CHO-cyCD137; CHOcynoCD137
The experiment in a line: flow cytometry on CHO-K cells transfected with cynomolgus CD137, anti-IgG(Fc)-PE, MFI. In general terms: Flow cytometry measures light scatter and fluorescence of single cells or particles in a stream.

B1: 1618-1210 (bispecific antibody)
heavy: EVQLLESGGGLVQPGGSLRLSCAASGFTFSYGSMYWVRQAPGKGLEWVSSISSGSGSTYYADSVKGRFTISRDNSKNTLYLQMNSLRAEDTAVYYCARSSYYGSYYSIDYWGQGTLVTVSS[no letters for human IgG1 constant region]GGGGSGGGGS[no letters for about 100 residues]YYGGYYSAWMDYWGQGTLVTVSSGGGGSGGGGSGGGGSDIQMTQSPSSLSASVGDRVTITCRASQSISSYLNWYQQKPGKAPKLLIYAASSLQSGVPSRFSGSGSGTDFTLTISSLQPEDFATYYCQQTYGYLHTFGQGTKLEIK
light: DIQMTQSPSSLSASVGDRVTITCRASQSISSYLNWYQQKPGKAPKLLIYAASSLQSGVPSRFSGSGSGTDFTLTISSLQPEDFATYYCQQYYDNLPTFGQGTKLEIKRTVAAPSVFIFPPSDEQLKSGTASVVCLLNNFYPREAKVQWKVDNALQSGNSQESVTEQDSKDSTYSLSSTLTLSKADYEKHKVYACEVTHQGLSSPVTKSFNRGEC
notes: Morrison format IgG-scFv
As for B1, the “IFN-γ release by human CD8+ T cells on plates coated with 5T4-Fc and anti-CD3, EC50” value in assay [1] was 0.6 to 0.9 nM. For the same molecule, in [2], the 50% effective concentration (EC50) is 0.2 nM. In assay [3], this molecule returned a Kd of 0.937 nM, a koff of 0.000455 s⁻¹ and a kon of 486000 M⁻¹ s⁻¹. In [4], this molecule gave a Kd of 0.129 nM, a koff of 0.000162 s⁻¹ and a kon of 1.26e+06 M⁻¹ s⁻¹. Further, in assay [5], the “EC50 (read off the curve)” value was ~4 nM. Further, in assay [6], the “EC50 (read off the curve)” value is ~0.4 nM.

B2: 1618-1208 (bispecific antibody)
heavy: not shown
light: DIQMTQSPSSLSASVGDRVTITCRASQSISSYLNWYQQKPGKAPKLLIYAASSLQSGVPSRFSGSGSGTDFTLTISSLQPEDFATYYCQQYYDNLPTFGQGTKLEIKRTVAAPSVFIFPPSDEQLKSGTASVVCLLNNFYPREAKVQWKVDNALQSGNSQESVTEQDSKDSTYSLSSTLTLSKADYEKHKVYACEVTHQGLSSPVTKSFNRGEC
notes: Morrison format IgG-scFv
Consider B2, for which, in assay [7], the “fold reduction of affinity against the parental mAb” value is ~6 fold. Also, the EC50 in assay [2] came out at 1.47 nM. In [3], this molecule gave a Kd of 0.601 nM, a koff of 4.62e-05 s⁻¹ and a kon of 76500 M⁻¹ s⁻¹.

B3: 1210-1618LO1 (bispecific antibody, human IgG1, kappa)
heavy: [no letters for about 100 residues]YYGGYYSAWMDYWGQGTLVTVSS[no letters for human IgG1 constant region with changes]GGGGSGGGGSEVQLLESGGGLVQPGGSLRLSCAASGFTFDYGSMYWVRQAPGKGLEWVSSISSGSGSTYYADSVKGRFTISRDNSKNTLYLQMNSLRAEDTAVYYCARSSYYGSYYSIDYWGQGTLVTVSSGGGGSGGGGSGGGGSDIQMTQSPSSLSASVGDRVTITCRASQSISQYLNWYQQKPGKAPKLLIYGASSLQSGVPSRFSGSGSGTDFTLTISSLQPEDFATYYCQQYYDNLPTFGQGTKLEIK
light: DIQMTQSPSSLSASVGDRVTITCRASQSISSYLNWYQQKPGKAPKLLIYAASSLQSGVPSRFSGSGSGTDFTLTISSLQPEDFATYYCQQTYGYLHTFGQGTKLEIKRTVAAPSVFIFPPSDEQLKSGTASVVCLLNNFYPREAKVQWKVDNALQSGNSQESVTEQDSKDSTYSLSSTLTLSKADYEKHKVYACEVTHQGLSSPVTKSFNRGEC
With B3, in [8], the Kd was determined as 1.58 nM, the koff was determined as 0.000344 s⁻¹ and the kon amounted to 218000 M⁻¹ s⁻¹. The “EC50 (read off the curve)” value in assay [9] was ~2 nM.

B4: 1210-1618LO3 (bispecific antibody, human IgG1, kappa)
heavy: [no letters for about 100 residues]YYGGYYSAWMDYWGQGTLVTVSS[no letters for human IgG1 constant region with changes]GGGGSGGGGSEVQLLESGGGLVQPGGSLRLSCAASGFTFSYGSMYWVRQAPGKGLEWVSSISSGSGSTHYADSVKGRFTISRDNSKNTLYLQMNSLRAEDTAVYYCARSSYYGSYYSIDYWGQGTLVTVSSGGGGSGGGGSGGGGSDIQMTQSPSSLSASVGDRVTITCRASQSIRQYLNWYQQKPGKAPKLLIYGASSLHSGVPSRFSGSGSGTDFTLTISSLQPEDFATYYCQQYYDNLPTFGQGTKLEIK
light: DIQMTQSPSSLSASVGDRVTITCRASQSISSYLNWYQQKPGKAPKLLIYAASSLQSGVPSRFSGSGSGTDFTLTISSLQPEDFATYYCQQTYGYLHTFGQGTKLEIKRTVAAPSVFIFPPSDEQLKSGTASVVCLLNNFYPREAKVQWKVDNALQSGNSQESVTEQDSKDSTYSLSSTLTLSKADYEKHKVYACEVTHQGLSSPVTKSFNRGEC
On to B4, for which, in assay [8], the Kd is 1.9 nM, the koff was determined as 0.000654 s⁻¹ and the kon turned out to be 345000 M⁻¹ s⁻¹. For the same molecule, the binding result in assay [9] was “binds”.

One may read the EC50 as the midpoint of the concentration-response curve. A lower EC50 goes with higher potency in that assay. As usually defined, the koff is the rate constant with which the complex falls apart. Usually kon stands for the second-order rate constant of association. Broadly, the EC50 (read off the curve) is the concentration that produces a half-maximal response.

These data come from patent US20190169308A1 (ALLIGATOR BIOSCIENCE, published 2019).
